Measured values: the supplement of paper PMC8728848
The list shows a part of the results.

What was measured:
Test in all cases: glycan array binding signal (z-score within array); higher = stronger binding
Details in all cases: glycan notation: IUPAC condensed, linker removed
[1] = target: Fuc(a1-2)[Gal(a1-3)]Gal(b1-4)GlcNAc(b1-2)Man(a1-3)[Fuc(a1-2)[Gal(a1-3)]Gal(b1-4)GlcNAc(b1-2)Man(a1-6)]Man(b1-4)GlcNAc(b1-4)[Fuc(a1-6)]GlcNAc
Summary of the method: (§1)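 From the Consortium for Functional Glycomics database, 3228 arrays were curated, keeping only those whose protein sequence was available. Binding is given as a within-array Z-score averaged across arrays sharing a protein sequence and across linkers. Negative Z-scores can be read as non-binding.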

[2] = target: Fuc(a1-2)[Gal(a1-3)]Gal(b1-4)GlcNAc(b1-3)GalNAc
Summary of the method: as §1

[3] = target: Fuc(a1-2)[Gal(a1-3)]Gal(b1-4)GlcNAc(b1-6)GalNAc
Summary of the method: as §1

[4] = target: Fuc(a1-2)[Gal(a1-3)]Gal(b1-4)[Fuc(a1-3)]Glc
Summary of the method: as §1

[5] = target: Fuc(a1-2)[Gal(a1-3)]Gal(b1-4)[Fuc(a1-3)]GlcNAc
Summary of the method: as §1

[6] = target: Fuc(a1-2)[Gal(a1-3)]Gal(b1-4)[Fuc(a1-3)]GlcNAc(b1-3)GalNAc
Summary of the method: as §1

[7] = target: Fuc(a1-2)[Gal(a1-4)]Gal(b1-4)GlcNAc
Summary of the method: as §1

[8] = target: Fuc(a1-2)[GalNAc(a1-3)]Gal
Summary of the method: as §1

[9] = target: Fuc(a1-2)[GalNAc(a1-3)]Gal(b1-3)GalNAc(a1-3)[Fuc(a1-2)]Gal(b1-4)GlcNAc
Summary of the method: as §1

[10] = target: Fuc(a1-2)[GalNAc(a1-3)]Gal(b1-3)GalNAc(b1-3)Gal(a1-4)Gal(b1-4)Glc
Summary of the method: as §1

[11] = target: Fuc(a1-2)[GalNAc(a1-3)]Gal(b1-3)GlcNAc
Summary of the method: as §1

[12] = target: Fuc(a1-2)[GalNAc(a1-3)]Gal(b1-3)GlcNAc(b1-2)Man(a1-3)[Fuc(a1-2)[GalNAc(a1-3)]Gal(b1-3)GlcNAc(b1-2)Man(a1-6)]Man(b1-4)GlcNAc(b1-4)GlcNAc
Summary of the method: as §1

[13] = target: Fuc(a1-2)[GalNAc(a1-3)]Gal(b1-3)GlcNAc(b1-2)Man(a1-3)[Fuc(a1-2)[GalNAc(a1-3)]Gal(b1-3)GlcNAc(b1-2)Man(a1-6)]Man(b1-4)GlcNAc(b1-4)[Fuc(a1-6)]GlcNAc
Summary of the method: as §1

[14] = target: Fuc(a1-2)[GalNAc(a1-3)]Gal(b1-3)GlcNAc(b1-3)GalNAc
Summary of the method: as §1

[15] = target: Fuc(a1-2)[GalNAc(a1-3)]Gal(b1-3)GlcNAc(b1-6)GalNAc
Summary of the method: as §1

[16] = target: Fuc(a1-2)[GalNAc(a1-3)]Gal(b1-4)Glc
Summary of the method: as §1

[17] = target: Fuc(a1-2)[GalNAc(a1-3)]Gal(b1-4)GlcNAc
Summary of the method: as §1

[18] = target: Fuc(a1-2)[GalNAc(a1-3)]Gal(b1-4)GlcNAc(b1-2)Man
Summary of the method: as §1

[19] = target: Fuc(a1-2)[GalNAc(a1-3)]Gal(b1-4)GlcNAc(b1-2)Man(a1-3)[Fuc(a1-2)[GalNAc(a1-3)]Gal(b1-4)GlcNAc(b1-2)Man(a1-6)]Man(b1-4)GlcNAc(b1-4)GlcNAc
Summary of the method: as §1

[20] = target: Fuc(a1-2)[GalNAc(a1-3)]Gal(b1-4)GlcNAc(b1-2)Man(a1-3)[Fuc(a1-2)[GalNAc(a1-3)]Gal(b1-4)GlcNAc(b1-2)Man(a1-6)]Man(b1-4)GlcNAc(b1-4)[Fuc(a1-6)]GlcNAc
Summary of the method: as §1

[21] = target: Fuc(a1-2)[GalNAc(a1-3)]Gal(b1-4)GlcNAc(b1-3)Gal(b1-4)GlcNAc
Summary of the method: as §1

[22] = target: Fuc(a1-2)[GalNAc(a1-3)]Gal(b1-4)GlcNAc(b1-3)Gal(b1-4)GlcNAc(b1-3)Gal(b1-4)GlcNAc
Summary of the method: as §1

[23] = target: Fuc(a1-2)[GalNAc(a1-3)]Gal(b1-4)GlcNAc(b1-3)GalNAc
Summary of the method: as §1

[24] = target: Fuc(a1-2)[GalNAc(a1-3)]Gal(b1-4)GlcNAc(b1-3)[Fuc(a1-2)[GalNAc(a1-3)]Gal(b1-4)GlcNAc(b1-6)]GalNAc
Summary of the method: as §1

[25] = target: Fuc(a1-2)[GalNAc(a1-3)]Gal(b1-4)GlcNAc(b1-6)GalNAc
Summary of the method: as §1

[26] = target: Fuc(a1-2)[GalNAc(a1-3)]Gal(b1-4)[Fuc(a1-3)]GlcNAc
Summary of the method: as §1

[27] = target: Fuc(a1-2)[GalNAc(a1-3)]Gal(b1-4)[Fuc(a1-3)]GlcNAc(b1-3)GalNAc
Summary of the method: as §1

[28] = target: Fuc(a1-2)[GalNAc(a1-4)]Gal(b1-4)GlcNAc
Summary of the method: as §1

[29] = target: Fuc(a1-2)[GalNAc(b1-3)]Gal
Summary of the method: as §1

[30] = target: Fuc(a1-3)GlcNAc
Summary of the method: as §1

B1: Pbx2 (Cryptococcus neoformans) (protein)
chain: AVSPLPSSTELVFYSQKRRRRRICSTATGSLSTPDPTRMTSDPYKRVGMRFSSVPRLLITFLSLLLLVSAAPPCVRFADYDSINQMFIDGGPGTKVLLCPNRLYRLSGPIIFTAADQEIATYGYPTGSERAVLRVEGRNTATAIQGDCRRCARVSVKNLVVDGNRKKLGRMRDFQLATGLVVLGGNEGQSIQNSWIKNPRGFTAIHIREGDKLQCSGARVEKNEIGPVGEEYDPEKDGDDPEMSPLGRPLADGVSIACRDSFIRDNTFRDNTDAAIVVYCSPGTLIHANHIFAQSLSAMAGILMVDSTPFNGDYTGTVVRSNIIDAVSRTIRVGIGIGPTVWSDDTETILTGGSVIGNGLKGRYMGYGIAAAGLKQWTIKDNWDEAKHEGRKSARCFDEPVNPDPIGLLYNRPTMEDCTVQSGFADHDFQYLVCIDGLYDKTNPPKHDPAPLAHDPSPTNAQEDNTVQQDGGDSKSKSIEQPREASDIEAEPSVEKMFSTGSEMMDDVLEHSHQRMHEVIDHLSRRIDILGAASAGKGSGDSKISEVLDPAMSSHLEKLQRKIEHLEFSLRSQIETAIQLRSAIQGWDQEMALVTDWEYDILLDVRHKLELSSYPHDQPLDPRLMRGQSYLNNEAVLVDDHSHPSLEGENLRAMSDRARLNANEEA
With B1 the “glycan array binding signal (z-score)” value [1] was -0.238, the “glycan array binding signal (z-score)” value [2] was -0.069 and the “glycan array binding signal (z-score)” value [3] was 2.16. The “glycan array binding signal (z-score)” value [4] was -0.407, the “glycan array binding signal (z-score)” value [5] was 0.058 and the “glycan array binding signal (z-score)” value [6] was 0.188. The “glycan array binding signal (z-score)” value [7] was -0.485, the “glycan array binding signal (z-score)” value [8] was -0.546 and the “glycan array binding signal (z-score)” value [9] was -0.109. The “glycan array binding signal (z-score)” value [10] was -0.535, the “glycan array binding signal (z-score)” value [11] was -0.234 and the “glycan array binding signal (z-score)” value [12] was -0.425. The “glycan array binding signal (z-score)” value [13] was -0.165, the “glycan array binding signal (z-score)” value [14] was 0.119 and the “glycan array binding signal (z-score)” value [15] was -0.128. For the same binder, the “glycan array binding signal (z-score)” value [16] was -0.284, the “glycan array binding signal (z-score)” value [17] was -0.579 and the “glycan array binding signal (z-score)” value [18] was 0.142. For the same binder, the “glycan array binding signal (z-score)” value [19] was -0.173, the “glycan array binding signal (z-score)” value [20] was -0.127 and the “glycan array binding signal (z-score)” value [21] was -0.29. For the same binder, the “glycan array binding signal (z-score)” value [22] was -0.335, the “glycan array binding signal (z-score)” value [23] was -0.072 and the “glycan array binding signal (z-score)” value [24] was 0.161. The “glycan array binding signal (z-score)” value [25] was -0.24, the “glycan array binding signal (z-score)” value [26] was -0.22 and the “glycan array binding signal (z-score)” value [27] was 2.01. The “glycan array binding signal (z-score)” value [28] was -0.377, the “glycan array binding signal (z-score)” value [29] was -0.326 and the “glycan array binding signal (z-score)” value [30] was -0.427.
